The campaign covered roughly 45,000 compounds. About 65 (0.1%) were called active. Calls come from the whole dose curve; as a rule, active = well fitted activation curve with a large enough effect; inconclusive = small, poorly fitted or top-dose-only effect; inactive = no such curve, though single readings can be large or run the other way. Some of the results follow.
Target: Galactocerebrosidase (Homo sapiens) (UniProt P54803)
Experiment: A Novel Cell-Based Assay to Identify Small Molecules for B -Galactocerebrosidase; note: 0% is about no effect; nearly all actives have a fitted effect of over 65% in size
Conditions: 145M-Twi-hGALC-G270D cells, HMU-beta-Gal fluorescence, 48 h; series mostly up to 57.5 µM; activation: at the top concentration
How it was run: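 qHTS, 1536-well; 145M-Twi-hGALC-G270D cells (WT line also made) in DMEM/F12 + 10% FBS; compound incubation on live cells; HMU-β-gal 0.1 mM final, pH 5.2, NaTC; carbonate stop; fluorescence increase = enhanced residual activity.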

Sequence of UniProt P54803 (P54803 whole entry, looked up): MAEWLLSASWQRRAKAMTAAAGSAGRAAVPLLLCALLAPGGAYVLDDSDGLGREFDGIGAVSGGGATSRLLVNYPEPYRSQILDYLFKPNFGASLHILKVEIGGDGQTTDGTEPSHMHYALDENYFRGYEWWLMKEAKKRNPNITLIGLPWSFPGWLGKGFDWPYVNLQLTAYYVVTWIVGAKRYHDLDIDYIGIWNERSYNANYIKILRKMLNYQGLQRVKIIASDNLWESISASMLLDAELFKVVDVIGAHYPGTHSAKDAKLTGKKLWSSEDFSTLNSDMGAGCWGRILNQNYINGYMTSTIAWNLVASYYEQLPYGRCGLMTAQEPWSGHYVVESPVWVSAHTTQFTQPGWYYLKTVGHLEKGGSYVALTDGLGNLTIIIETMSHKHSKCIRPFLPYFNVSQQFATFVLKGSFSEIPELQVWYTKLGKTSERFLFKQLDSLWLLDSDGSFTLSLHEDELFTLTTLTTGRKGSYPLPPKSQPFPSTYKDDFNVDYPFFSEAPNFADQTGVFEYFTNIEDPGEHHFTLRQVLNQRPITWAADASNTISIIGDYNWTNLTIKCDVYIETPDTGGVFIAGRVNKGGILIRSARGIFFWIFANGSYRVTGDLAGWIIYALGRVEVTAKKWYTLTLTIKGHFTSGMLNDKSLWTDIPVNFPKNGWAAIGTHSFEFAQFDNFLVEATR

| SMILES | activation |
| --- | --- |
| CC(C)Cc1nn2cc(-c3cccc(Br)c3)nc2s1 | inactive: -5.37% |
| CC(NC(=O)CCc1cn(Cc2ccccc2Cl)c2ccccc12)c1ccccc1 (configuration not stated) | inactive: -3.61% |
| O=C(NCCc1ccccc1)c1ccc(CSc2nc3cccnc3n2Cc2ccccc2)cc1 | inactive: -8.62% |
| COc1ccc(C(CC(=O)Nc2ccccn2)N2Cc3ccccc3C2=O)cc1OC (configuration not stated) | inactive: -2.28% |
| O=C(CCS(=O)(=O)c1ccccc1)N(Cc1cccnc1)c1nc2c(F)cccc2s1 | inactive: -3.66% |
| CCOC(=O)c1nnc2c(-c3ccc(Cl)cc3)c(C)nn2c1N | inactive: -13.6% |
| CCc1ccccc1NC(=O)Cn1nnc(C(=O)NCc2ccco2)c1N | inactive: -4.85% |
| Cc1ccc(-c2nc(CS(=O)(=O)CC(=O)NC(C)CCc3ccccc3)c(C)o2)cc1 (configuration not stated) | inactive: -20.4% |
| COc1ccc(/C=C/c2nc(C#N)c(N3CCC(C(N)=O)CC3)o2)cc1OC | inactive: 0.116% |
| O=C(NCCO)C(=O)NCC(c1ccc2c(c1)OCO2)N1CCOCC1 (configuration not stated) | inactive: -19.6% |
| CC(C)CN(c1ccccc1)S(=O)(=O)c1nnc(NC(=O)C2CCCCC2)s1 | inactive: 16.6% |
| CCOc1ccc(-c2cc3nc(C4CCN(C(=O)OC(C)(C)C)CC4)c(C(=O)Nc4cccc(C(F)(F)F)c4)cn3n2)cc1 | inactive: -8.98% |
| Cc1nc2cccnc2n1-c1cccc(C(=O)NCc2cccc(Cl)c2)c1 | inactive: -43.1% |
| c1ccc2c(c1)CCc1ccccc1N2 | inactive: -9.47% |
| COc1ccc(Br)cc1CNCc1c(C(=O)O)c(C)n(Cc2ccccc2C)c1C | inactive: -10% |
| COc1ccc(-c2nc3scc(CCNS(=O)(=O)c4cccs4)n3n2)cc1 | inactive: -3.85% |
| Cc1ccc(-n2c(=O)c3c4c(sc3n(CC(=O)C(C)(C)C)c2=O)CCCCC4)cc1C | inactive: -14% |
| COc1cccc(C(=O)NC2=NC(c3ccccc3F)CC(=O)N2)c1 (configuration not stated) | inactive: -7.6% |
| COc1cc(Cl)c(NS(=O)(=O)c2cc3[nH]c(=O)c(=O)[nH]c3cc2C)c(OC)c1 | inactive: -9.92% |
| Cc1cc2c(cc1S(=O)(=O)CCC(=O)N1CCN(c3ccccc3)CC1)OCC(=O)N2 | inactive: 3.88% |
| CCCCCOC(=O)CSc1nc2sc3c(c2c(=O)n1Cc1ccccc1)CC(C)(CC)OC3 (configuration not stated) | inactive: 2.61% |
| CCS(=O)(=O)N1CC(=O)N(c2cc(Cl)ccc2C)C(C)(C(=O)NC2CCCCCC2)C1 (configuration not stated) | inactive: -8.41% |
| O=C(Nc1ccc2c(c1)CCCN2C(=O)c1cccs1)c1ccccc1C(F)(F)F | inactive: -5.95% |
| COC(=O)c1ccc(NC(=O)c2c(-c3ccccc3)c(-c3ccccc3)nn(C)c2=O)cc1 | inactive: -6.51% |
| CCOC(=O)Cc1ccc(NC(=O)Nc2nnc(N3CCCCC3C)s2)cc1 (configuration not stated) | inactive: -10.8% |

| SMILES | activation |
| --- | --- |
| CCc1ccc(Nc2nc(-c3cc4cccc(OC)c4oc3=O)c(CC)s2)cc1 | inactive: -12.8% |
| CCOC(=O)c1ccc(NC(=O)Nc2cc3c(cc2N2CCCCC2)n(CC)c(=O)n3CC)cc1 | inactive: -4.4% |
| CCC(=O)N1CCc2cc(Br)cc(S(=O)(=O)NCCc3ccc(C)cc3)c21 | inactive: -4.77% |
| Cc1cccc(OC(=O)c2snnc2C)c1C | inactive: -12% |
| CCCN(C(=O)c1cc2c(s1)-c1ccccc1OC2)c1ccc(C(C)C)cc1 | inactive: 0.0582% |
| CCOC(=O)C1CCN(C(=O)c2ccc(C)c(NC(=O)c3nsc4ccccc34)c2)CC1 | inactive: -21.4% |
| CCC(=O)N1c2ccc(S(=O)(=O)CCC(=O)NCc3ccc(OC)cc3)cc2CC1C (configuration not stated) | inactive: -18.6% |
| Cc1ccc(NC(=O)C2CCC(CNS(=O)(=O)c3cccs3)CC2)cc1C (configuration not stated) | inactive: -13% |
| CC(C)c1ccc(S(=O)(=O)NCc2nc3cccnc3n2Cc2ccc(F)cc2)cc1 | inactive: -11% |
| CC1=C(C(=O)Nc2cc(C)cc(C)c2)C2(CCCCC2)OC1=O | inactive: -2.32% |
| COc1ccc(NC(=O)COCc2cc(-c3ccco3)on2)cc1Cl | inactive: 6.11% |
| O=C(Nc1ccc(F)c(F)c1)c1ccc(=O)n(Cc2ccc(F)cc2)c1 | inactive: -7.18% |
| O=S(=O)(Nc1ccc(OC(F)(F)F)cc1)c1ccc(N2CCCCS2(=O)=O)cc1 | inactive: -24% |
| Cc1cc(C)c(S(=O)(=O)NCC(c2ccco2)S(=O)(=O)c2ccccc2)c(C)c1 (configuration not stated) | inactive: -16.2% |
| CCc1cccc(C)c1Nc1c(-c2cccs2)nc2ncccn12 | inactive: -16.4% |
| O=C(Cn1c(=O)c2ccccc2n(CC(=O)Nc2ccccc2F)c1=O)NCCc1ccccc1 | inactive: -19.2% |
| Cc1cc(C)c(NC(=O)CCN2CCCCC2)c(C)c1 | inactive: -14.5% |
| COc1cccc(C2C(=O)N(C3CCCCC3)CC(=O)N2CCc2ccc(OC)c(OC)c2)c1 (configuration not stated) | inactive: -4.79% |
| Nc1nc(N)c(S(=O)(=O)c2ccccc2)c(Nc2ccccc2)n1 | inactive: 3.1% |
| COc1cc(OC)c(NC(=O)CCc2nc(C3=CCN(Cc4cccc(Cl)c4)CC3)no2)cc1Cl | inactive: 1.01% |
| CCc1ccc(-n2c(=O)c3sc4ccccc4c3n(CC(=O)NC3CCCC3)c2=O)cc1 | inactive: -13.1% |
| Cc1nc2nc(CNC(=O)OC(C)(C)C)nn2c(C)c1CCC(=O)NCc1ccccc1Cl | inactive: -12.2% |
| COc1ccc(-c2cc(C(=O)Oc3ccc(Br)cc3)c3ccccc3n2)cc1 | inactive: -10.6% |
| Cc1ccc(NC(=O)c2oc3ccccc3c2NC(=O)C2CCCCC2)cc1 | inactive: -20.2% |
| CCc1ccc2c(c1)c(=O)c(S(=O)(=O)c1ccc(F)cc1)cn2CC(=O)Nc1ccccc1OC | inactive: -10.6% |

| SMILES | activation |
| --- | --- |
| CC(C)c1ccc(NC(=O)CN2C(=O)C3(SCC(=O)N3c3ccc(F)cc3)c3ccccc32)cc1 (configuration not stated) | inactive: -15.7% |
| Cc1ccc(N2CCn3c2nc2c3c(=O)n(Cc3cccc(Cl)c3)c(=O)n2C)cc1C | inactive: -2.61% |
| O=C(Nc1ccc(Cl)cc1)c1ccc2c(c1)N(Cc1ccccc1)CCS2 | inactive: -15.1% |
| COc1ccc(NC(=O)Cn2c(=O)n(Cc3ccco3)c(=O)c3sc4ccccc4c32)cc1Cl | inactive: -7.45% |
| CCSC1=NC2(CCN(C(=O)NC3CCCCC3)CC2)N=C1c1ccc(OC)cc1 | inactive: -0.958% |
| Cc1nc(CC(=O)Nc2ccc(C(N)=O)cc2)cs1 | inactive: -2.16% |
| CC(C(=O)NCc1ccccc1)n1ccc2cc(S(=O)(=O)N3CCCC3)ccc21 (configuration not stated) | inactive: -10% |
| CCOc1ccccc1CNC(=O)CCc1cn(C)c2ccccc12 | inactive: -27.7% |
| CCCC12CN3CC(CCC)(CN(C1)C3c1c[nH]c3ccc(OC)cc13)C2=O (configuration not stated) | inactive: -12.4% |
| CCN(C(=O)CSc1nc2ccccc2nc1Cc1ccccc1OC)c1ccccc1 | inactive: 22.5% |
| O=C(CN1C(=O)CCSc2ccc(S(=O)(=O)N3CCCC3)cc21)Nc1ccccc1Cl | inactive: -12.4% |
| CCCOc1ccc(CC2C(=O)Nc3ccc(Br)cc32)cc1 (configuration not stated) | inactive: -4.47% |
| CC(=O)Nc1ccc(S(=O)(=O)NC2(C(F)(F)F)C(=O)Nc3c2c(=O)[nH]c(=O)n3-c2ccc(C)cc2)cc1 (configuration not stated) | inactive: -15.1% |
| CCc1cccc(NC(=O)CN2C(=O)COc3ccc(S(=O)(=O)N4CCC(C)CC4)cc32)c1 | inactive: -7.34% |
| CCOCCCNC(=O)C(c1ccc(OC)cc1)N(Cc1cccs1)C(=O)CNC(C)=O (configuration not stated) | inactive: -12.2% |
| Cc1ccc(C(=O)CC2(O)C(=O)N(CCc3ccccc3)c3ccc(Br)cc32)cc1 (configuration not stated) | inactive: -34.2% |
| Cc1ccc(Cn2c(C)c3cnn(CC(=O)N4CCN(c5cc(C)ccc5C)CC4)c(=O)c3c2C)cc1 | inactive: 5.25% |
| COc1cccc(-n2c(C)nc3c(cnn3-c3ccc(C)c(C)c3)c2=O)c1 | inactive: -11.5% |
| O=c1oc2ccc(Cl)cc2cc1-c1nc(-c2cccs2)no1 | inactive: -11.6% |
| CCOC(=O)c1cc2c(=O)n3ccccc3nc2n(CCCOC)c1=NC(=O)c1cc2ccccc2o1 | inactive: -15.7% |
| COc1ccc(NC(=O)Cn2c(=O)n(Cc3ccccc3Cl)c(=O)c3cc(OC)c(OC)cc32)cc1 | inactive: -15.1% |
| Cc1ccc(-n2nc3c(N4CCCC(C(=O)NCc5ccccc5C)C4)nnc(C)c3c2C)cc1 (configuration not stated) | inactive: -24.6% |
| COC(=O)c1c(NC(=O)CS(=O)(=O)c2ccc(C)cc2)sc2c1CCCCC2 | inactive: -23% |
| CCOc1cc2[nH]c(=O)n(CCC(=O)N3CCN(c4ccccc4)CC3)c(=O)c2cc1OCC | inactive: -11.4% |
| Cc1ccc2scc(N3CCCC(C)C3)c(=O)c2c1 (configuration not stated) | inactive: -12.5% |

| SMILES | activation |
| --- | --- |
| O=C(c1ccc(Cl)cc1)n1nc(-c2ccccc2)nc1NCc1ccco1 | inactive: -27.4% |
| CCCn1c(=N)c(C(=O)NC(C)c2ccccc2)cc2c(=O)n3ccccc3nc21 (configuration not stated) | inactive: -12% |
| COc1cccc(C(=O)NCc2cn3cccc(C)c3n2)c1 | inactive: -12.5% |
| Cn1c(=O)n(C)c2cc(CNCc3ccccc3Cl)ccc21 | inactive: -12% |
| Cc1ccc(NC(=O)N2CCN3CCCCC3C2)cc1C (configuration not stated) | inactive: -1.37% |
| Cc1c(Cl)cccc1-n1ncc(C(=O)NC2CCCC2)c1C1CCN(C(=O)OC(C)(C)C)CC1 | inactive: -3.02% |
| CCOc1ccc(NC(=O)c2nn(C)c3c2COc2ccccc2-3)cc1 | inactive: -2.17% |
| CC(C)c1ccc(NC(=O)CSC2=Nc3ccccc3C3=NC(CCC(=O)NCc4cccs4)C(=O)N23)cc1 (configuration not stated) | inactive: -1.93% |
| COc1ccc2c(c1)c1c(c(=O)n(-c3cc(Cl)ccc3C)c(=O)n1Cc1ccc(F)cc1)n2C | inactive: 0.911% |
| COc1ccc(-c2[nH]c(-c3ccc(C)cc3)nc2SCC(=O)NCC2CCCO2)cc1 (configuration not stated) | inactive: -21.9% |
| COc1cccc(NC(=O)CSc2nc(=O)[nH]c3c2CCCC3)c1 | inactive: -16.8% |
| CCSc1ncc(Cl)c(C(=O)Nc2cc(C)ccc2C)n1 | inactive: -13% |
| CCCOC(=O)c1c(-c2ccccc2)c(-c2ccccc2)nn(C)c1=O | inactive: -9.29% |
| Cc1cc(C)c(-c2n[nH]c3c2C(c2ccccc2F)N(CCO)C3=O)c(O)c1 (configuration not stated) | inactive: -9.56% |
| CC(=O)c1c(C)n(-c2cccc(Cl)c2)c2ccc(OC(=O)c3ccccc3)cc12 | inactive: 1.82% |
| O=C(NCCc1ccc(F)cc1)C(=O)NCC(c1cccs1)S(=O)(=O)c1cccs1 (configuration not stated) | inactive: 2.31% |
| COc1ccc(-c2cc(-c3ccccc3)nc3c2COc2ccc(Cl)cc2-3)cc1 | inactive: -9.9% |
| O=C1C2=C(Nc3ccccc3SC2c2c(F)cccc2Cl)c2ccccc21 (configuration not stated) | inactive: -11.5% |
| COc1ccc(NC(=O)Nc2cn(CC(C)C)c(=O)c3ccccc23)c(OC)c1 | inactive: -18.1% |
| Cn1cc[nH]c1=S | inactive: -12.1% |
| CCOC(=O)N1CCC(NC(=O)c2cnn(-c3cccc(C)c3)c2-n2cccc2)CC1 | inactive: -6.29% |
| CC(=O)N1CCCc2cc(S(=O)(=O)N3CCC(C(=O)NC4CCCCC4)CC3)ccc21 | inactive: -17.4% |

From PubChem BioAssay AID1159614 (National Center for Advancing Translational Sciences (NCATS), 2016)
